# “And” between values parts separate entries of the source, which are not always exact repeats. Identical values can stand only once. This list was built around the results that the source calls inconclusive (neither active nor inactive); the mix of calls is not that of the screen. A potency beside an inconclusive call is a rough fit, not a confirmed value. The source made the active and inactive calls. The call rests on the fitted dose curve; in most records, active means well fitted curve in the direction sought with a large enough effect; inconclusive means small, poorly fitted or top-dose-only effect, or another doubt; inactive means no such curve, though single readings can be large; an effect the other way counts as inactive or inconclusive.
# Tests used:
# HEK293 = assay: Cytotoxic Profiling of Annotated Libraries Using Quantitative High-Throughput Screening (AID 1296008); details: Five cell lines viability, CellTiter-Glo ATP luminescence, 48-72 h; max response: stronger effect = lower value; further: nearly all actives have a fitted effect of over 60% in size; on max response: on the % scale 0 is the no-effect control and ±100 the full control effect
# Outline: (§1)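 Compounds were pin-transferred onto cells and incubated 48 or 72 hr at 37 degree Celsius, 95% humidity. CellTiter-Glo was added, plates sat 10 min at room temperature, then ATP-coupled luminescence was imaged as the viability read-out.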
# HaCat = assay: as above; details: Five cell lines viability, CellTiter-Glo ATP luminescence, 48-72 h; max response: stronger effect = lower value
# Outline: as §1
# KB-3-1 = assay: as above; details: Five cell lines viability, CellTiter-Glo ATP luminescence, 48-72 h; max response: stronger effect = lower value
# Outline: as §1
# HeLa = assay: Primary qHTS to identify gynecologic anti-cancer compounds using libraries of approved drugs and bioactive compounds (AID 1345084); details: Gynecologic cancer cell panel viability, ATPlite luminescence, 48 h; series mostly up to 57.5 µM; further: nearly all actives have a fitted effect of over 55% in size; on activity change, negative = cytotoxicity: on the % scale 0 is the no-effect control and ±100 the full control effect
# Outline: (§2)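 ATP-based viability (ATPlite), 1,000 cells/well, 16 h pre-incubation, 48 h compound at 37 C, 5% CO2, 15 min RT before read.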
# SKOV3 = assay: as above; details: Gynecologic cancer cell panel viability, ATPlite luminescence, 48 h; series mostly up to 57.5 µM
# Outline: as §2
# Tov-21-G = assay: as above; details: Gynecologic cancer cell panel viability, ATPlite luminescence, 48 h; activity change, negative = cytotoxicity: at 57.5 µM (top of the series)
# Outline: as §2
# [1] = P-glycoprotein substrates identified in KB-8-5-11 adenocarcinoma cell line, qHTS therapeutic library screen (AID 1346987); details: KB-8-5-11 (P-gp overexpressing) viability, CellTiter-Glo, 72 h; series mostly up to 44.5 µM; further: nearly all actives have a fitted effect of over 65% in size
# Outline: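 Compounds are pinned in dose-response onto KB-8-5-11 cells (500 cells/well, colchicine-free medium) and left 72 h at 37 degree C. CellTiter-Glo luminescence then yields AC50 values.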
# [2] = Primary qHTS for inhibitors of nuclear receptor binding SET domain protein 2 (NSD2) in an isogenic RCH-ACV NSD2 p.E1099K mutant (9B) (AID 1645876); details: RCH-ACV NSD2 E1099K (9B) viability, CellTiter-Glo, 72 h; series mostly up to 44.9 µM; further: nearly all actives have a fitted effect of over 70% in size
# CAOV3 = assay: Primary qHTS to identify gynecologic anti-cancer compounds using libraries of approved drugs and bioactive compounds (AID 1345084); details: Gynecologic cancer cell panel viability, ATPlite luminescence, 48 h; series mostly up to 57.5 µM; further: nearly all actives have a fitted effect of over 55% in size; on activity change, negative = cytotoxicity: on the % scale 0 is the no-effect control and ±100 the full control effect
# Outline: as §2
# C33A = assay: as above; details: Gynecologic cancer cell panel viability, ATPlite luminescence, 48 h; series mostly up to 57.5 µM
# Outline: as §2
# CASKI = assay: as above; details: Gynecologic cancer cell panel viability, ATPlite luminescence, 48 h; activity change, negative = cytotoxicity: at 57.5 µM (top of the series)
# Outline: as §2
# Es-2 = assay: as above; details: Gynecologic cancer cell panel viability, ATPlite luminescence, 48 h; series mostly up to 57.5 µM
# Outline: as §2
# Hek293T = assay: as above; details: Gynecologic cancer cell panel viability, ATPlite luminescence, 48 h, control line for the selectivity index; series mostly up to 57.5 µM
# Outline: as §2
# JEG-3 = assay: as above; details: Gynecologic cancer cell panel viability, ATPlite luminescence, 48 h; series mostly up to 57.5 µM
# Outline: as §2
# OV90 = assay: as above; details: Gynecologic cancer cell panel viability, ATPlite luminescence, 48 h; series mostly up to 57.5 µM
# Outline: as §2
# Tov112D = assay: as above; details: Gynecologic cancer cell panel viability, ATPlite luminescence, 48 h; activity change, negative = cytotoxicity: at 57.5 µM (top of the series)
# Outline: as §2
# [3] = Primary qHTS for inhibitors of nuclear receptor binding SET domain protein 2 (NSD2) in an RCH-ACV wild type WT cells (2C) (AID 1645877); details: RCH-ACV (leukaemia line) NSD2 WT (2C) viability, CellTiter-Glo, 72 h; activity change, negative = cell killing: at 44.9 µM (top of the series); series mostly up to 44.9 µM; further: nearly all actives have a fitted effect of over 70% in size
# PA-1 = assay: Primary qHTS to identify gynecologic anti-cancer compounds using libraries of approved drugs and bioactive compounds (AID 1345084); details: Gynecologic cancer cell panel viability, ATPlite luminescence, 48 h; series mostly up to 57.5 µM; further: nearly all actives have a fitted effect of over 55% in size; on activity change, negative = cytotoxicity: on the % scale 0 is the no-effect control and ±100 the full control effect
# Outline: as §2
# [4] = test system: Zika virus NS2B-NS3 protease (unlinked complex); assay: Primary screen GU Rhodamine qHTS for Zika virus inhibitors: Unlinked NS2B-NS3 protease assay (AID 1347159); details: Recombinant ZIKV NS2B-NS3 protease, Rhodamine110 substrate fluorescence; series mostly up to 107 µM; further: nearly all actives have a fitted effect of over 60% in size
# Outline: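 Enzyme 25 nM in Tris-HCl pH 8.0 + 0.01% Tween 20; compounds up to 114 microM, 15 min RT dark; + Rhod110 substrate 1.5 microM; read t0 and 15 min; delta fluorescence → % inhibition → 4-parameter Hill fit.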
# Potency means the concentration at half of the fitted maximal effect; tags describe the fitted curve by direction and shape.
smiles,measurement,setting,value
CCn1c(=O)c(-c2ccc(Cl)cc2Cl)cc2cnc(Nc3ccc(N4CCNCC4)c(F)c3)nc21,Potency,HEK293,"inconclusive: 0.92 µM [inhibitor, full curve]"
same,Potency,HaCat,"inconclusive: 8.2 µM [inhibitor, partial curve]"
same,Potency,KB-3-1,"inconclusive: 23.1 µM [inhibitor, single point]"
same,Potency,HeLa,"inconclusive: 28.2 µM [cytotoxic, single point]"
same,Potency,SKOV3,"inconclusive: 2 µM [cytotoxic, full curve]"
same,Potency,Tov-21-G,"inconclusive: 3.16 µM [cytotoxic, partial curve]"
CCCCOc1ccc(-c2cncc(C(=O)NCc3cccnc3N3CCOCC3)c2)cc1Cl,Potency,[1],"inconclusive: 14.6 µM [inhibitor, partial curve]"
same,Potency,[2],inactive
same,Potency,HEK293,"inconclusive: 18.4 µM [inhibitor, single point]"
same,Potency,HaCat,"inconclusive: 29.1 µM [inhibitor, single point]"
same,Potency,KB-3-1,"inconclusive: 16.4 µM [inhibitor, single point]"
same,Potency,CAOV3,inactive
O=C(c1ccc(F)c(F)c1Nc1ccc(I)cc1F)N1CC(O)([C@@H]2CCCCN2)C1,Potency,[1],active: 20.6 µM
same,Potency,[2],"inconclusive: 18.3 µM [inhibitor, single point]"
same,Potency,HEK293,"inconclusive: 18.4 µM [inhibitor, single point]"
same,Potency,HaCat,"inconclusive: 25.9 µM [inhibitor, partial curve, poor fit]"
same,Potency,KB-3-1,"inconclusive: 29.1 µM [inhibitor, single point]"
same,Potency,C33A,"inconclusive: 39.8 µM [cytotoxic, partial curve, poor fit]"
same,Potency,CAOV3,"inconclusive: 20 µM [cytotoxic, partial curve, poor fit]"
same,Potency,CASKI,"inconclusive: 28.2 µM [cytotoxic, partial curve, poor fit]"
same,Potency,Es-2,"inconclusive: 39.8 µM [cytotoxic, partial curve, poor fit]"
same,Potency,Hek293T,"inconclusive: 17.8 µM [cytotoxic, partial curve, poor fit]"
same,Potency,JEG-3,inactive
same,Potency,OV90,inconclusive: 1.41 µM
same,Potency,SKOV3,"inconclusive: 28.2 µM [cytotoxic, partial curve, poor fit]"
same,Potency,Tov-21-G,"inconclusive: 15.8 µM [cytotoxic, partial curve, poor fit]"
same,Potency,Tov112D,"inconclusive: 2.82 µM [cytotoxic, partial curve, poor fit]"
COc1cc2nc(N3CCN(C(=O)COc4c(OC)cccc4C(C)C)CC3)nc(N)c2cc1OC,Potency,[2],"inconclusive: 29 µM [inhibitor, single point]"
same,Potency,[3],"inconclusive: 16.3 µM [inhibitor, single point]"
same,Potency,HEK293,"inconclusive: 16.4 µM [inhibitor, single point]"
same,outcome,HaCat,inactive
same,max response,KB-3-1,inactive: 8.96%
same,Potency,CAOV3,"inconclusive: 7.08 µM [rising, full curve]"
same,Potency,CASKI,inactive
CCn1c(=O)c(-c2ccn[nH]2)cc2c(C)nc(N)nc21,Potency,[1],active: 2.91 µM
same,Potency,[2],active: 0.934 µM
same,Potency,[3],active: 1.18 µM
same,Potency,HEK293,active: 4.61 µM
same,Potency,HaCat,active: 2.59 µM
same,Potency,KB-3-1,active: 7.31 µM
same,Potency,C33A,"inconclusive: 12.6 µM [cytotoxic, partial curve]"
same,Potency,CAOV3,"inconclusive: 14.1 µM [cytotoxic, partial curve, poor fit]"
same,Potency,CASKI,active: 15.8 µM
same,Potency,Es-2,"inconclusive: 20 µM [cytotoxic, partial curve, poor fit]"
same,Potency,HeLa,active: 8.91 µM
same,Potency,Hek293T,active: 8.91 µM
same,Potency,PA-1,"inconclusive: 25.1 µM [cytotoxic, partial curve, poor fit]"
same,Potency,SKOV3,active: 10 µM
same,Potency,Tov-21-G,"inconclusive: 14.1 µM [cytotoxic, partial curve]"
same,Potency,Tov112D,"inconclusive: 3.98 µM [cytotoxic, full curve]"
Cc1cc(N=Nc2ccc(S(=O)(=O)Nc3ccccn3)cc2)c(N)cc1O,Potency,[1],"inconclusive: 14.6 µM [inhibitor, partial curve]"
same,Potency,[3],active: 5.78 µM
same,Potency,HEK293,"inconclusive: 16.4 µM [inhibitor, partial curve]"
same,Potency,HaCat,"inconclusive: 29.1 µM [inhibitor, single point]"
same,Potency,KB-3-1,"inconclusive: 20.6 µM [inhibitor, single point]"
same,Potency,CAOV3,"inconclusive: 22.4 µM [cytotoxic, single point]"
same,Potency,CASKI,"inconclusive: 14.1 µM [cytotoxic, partial curve, poor fit]"
same,Potency,Es-2,"inconclusive: 12.6 µM [cytotoxic, partial curve]"
same,Potency,Hek293T,"inconclusive: 10 µM [cytotoxic, partial curve, poor fit]"
same,Potency,OV90,"inconclusive: 31.6 µM [cytotoxic, single point]"
same,Potency,SKOV3,"inconclusive: 20 µM [cytotoxic, partial curve, poor fit]"
same,Potency,Tov-21-G,"inconclusive: 39.8 µM [cytotoxic, single point]"
same,Potency,Tov112D,"inconclusive: 28.2 µM [cytotoxic, single point]"
NS(=O)(=O)NCCNc1nonc1C(=Nc1ccc(F)c(Br)c1)NO,Potency,[4],"inconclusive: 100 µM [inhibitor, single point]"
same,Potency,[2],"inconclusive: 16.3 µM [inhibitor, partial curve, poor fit] and inconclusive: 25.8 µM [inhibitor, partial curve] and inactive"
same,Potency,[3],"inconclusive: 23 µM [inhibitor, partial curve, poor fit] and inconclusive: 29 µM [inhibitor, single point]"
same,Potency,HEK293,"inconclusive: 29.5 µM [inhibitor, single point]"
same,Potency,HaCat,"inconclusive: 37.1 µM [inhibitor, single point]"
same,max response,KB-3-1,inactive: 4.58% and inactive: 8.99%
same,Potency,C33A,inactive
CCC(C)/C=C(C)/C=C/C1=CC2=CC(=O)C3(C)OC(C)(O)C(C(=O)OC)C3C2=CO1 (configuration not stated),Potency,[1],inactive
same,Potency,[2],"inconclusive: 15.9 µM [inhibitor, single point]"
same,Potency,[3],"inconclusive: 11.2 µM [inhibitor, single point]"
same,Potency,HEK293,"inconclusive: 12.6 µM [inhibitor, single point]"
same,max response,HaCat,inactive: 4.73%
same,max response,KB-3-1,inactive: 0.0483%
CN(CCCNC(=O)c1ccc2nc3c(c(Cl)c2c1)CCCC3)Cc1ccccc1,Potency,[1],"inconclusive: 29.1 µM [inhibitor, single point]"
same,Potency,[2],active: 12.9 µM
same,Potency,[3],active: 8.17 µM
same,Potency,HEK293,"inconclusive: 29.1 µM [inhibitor, partial curve, poor fit]"
same,max response,HaCat,inactive: 1.7%
same,Potency,KB-3-1,"inconclusive: 16.4 µM [inhibitor, single point]"
same,Potency,SKOV3,inactive
CC(C)(C)Nc1nc2cc(Cl)c(Cl)cc2nc1S(C)(=O)=O,Potency,[4],active: 89.1 µM
same,Potency,[3],active: 0.409 µM
same,Potency,HEK293,active: 4.11 µM
same,Potency,HaCat,active: 5.8 µM
same,Potency,KB-3-1,active: 13 µM
same,Potency,C33A,"inconclusive: 17.8 µM [cytotoxic, partial curve, poor fit]"
same,Potency,CAOV3,"inconclusive: 14.1 µM [cytotoxic, partial curve, poor fit]"
same,Potency,CASKI,active: 35.5 µM
same,Potency,Es-2,"inconclusive: 17.8 µM [cytotoxic, partial curve, poor fit]"
same,Potency,HeLa,"inconclusive: 39.8 µM [cytotoxic, single point]"
same,Potency,Hek293T,active: 28.2 µM
same,Potency,JEG-3,active: 15.8 µM
same,Potency,OV90,"inconclusive: 35.5 µM [cytotoxic, single point]"
same,Potency,PA-1,"inconclusive: 28.2 µM [cytotoxic, single point]"
same,Potency,SKOV3,active: 20 µM
same,Potency,Tov-21-G,active: 28.2 µM
same,Potency,Tov112D,"inconclusive: 35.5 µM [cytotoxic, single point]"
CCS(=O)c1nc(-c2cccc(OCc3ccccc3)c2)cc(C(F)(F)F)n1 (configuration not stated),Potency,[1],"inconclusive: 29.1 µM [inhibitor, single point]"
same,Potency,[4],"inconclusive: 17.8 µM [inhibitor, full curve]"
same,Potency,HEK293,"inconclusive: 23.1 µM [inhibitor, single point]"
same,Potency,HaCat,"inconclusive: 29.1 µM [inhibitor, single point]"
same,Potency,KB-3-1,"inconclusive: 18.4 µM [inhibitor, single point]"
same,Potency,C33A,"inconclusive: 28.2 µM [cytotoxic, single point]"
same,Potency,CAOV3,"inconclusive: 35.5 µM [cytotoxic, single point]"
same,Potency,Hek293T,"inconclusive: 39.8 µM [cytotoxic, single point]"
same,Potency,JEG-3,"inconclusive: 25.1 µM [cytotoxic, single point]"
same,Potency,PA-1,"inconclusive: 39.8 µM [cytotoxic, single point]"
C=C(C(=O)OC[C@H]1O[C@@H](OC(=O)/C=C/c2ccccc2)[C@H](O)[C@@H](O)[C@@H]1O)C(O)CO (some centres not stated),Potency,[4],"inconclusive: 35.5 µM [inhibitor, partial curve]"
same,Potency,[2],"inconclusive: 11.2 µM [inhibitor, single point]"
same,Potency,HEK293,"inconclusive: 15.9 µM [inhibitor, single point]"
same,Potency,HaCat,"inconclusive: 0.008 µM [inhibitor, full curve]"
same,max response,KB-3-1,inactive: -8.71%
same,Potency,SKOV3,inactive
Cc1cc2c(cc1N1C(=O)c3cccc4c(CCCO)ccc(c34)C1=O)n(C)c(=O)n2C,Potency,[1],"inconclusive: 5.44 µM [inhibitor, single point]"
same,Potency,[4],"inconclusive: 28.2 µM [inhibitor, partial curve, poor fit]"
same,max response,HEK293,inactive: -71.7%
same,Potency,HaCat,"inconclusive: 7.69 µM [inhibitor, single point]"
same,Potency,KB-3-1,"inconclusive: 4.85 µM [inhibitor, single point]"
same,Potency,SKOV3,inactive
